Earlier results, collected in article PMC11006913.
This is one part of the list.

Key:
Conditions in all cases: PBM; conditions not shown; double strand, one strand shown; scale: upbm affinity estimate (log intensity, higher = more binding, comparable within an allelic series)
[1] = molecular target: PITX2 L100Q (Homo sapiens) (UniProt Q99697)
[2] = molecular target: PITX2 R108H (Homo sapiens) (UniProt Q99697)
[3] = molecular target: PITX2 R130W (Homo sapiens) (UniProt Q99697)
[4] = molecular target: PITX2 T114P (Homo sapiens) (UniProt Q99697)

Sequence | binding signal [1] | binding signal [2] | binding signal [3] | binding signal [4]
ACCCGGCG [8-mer ACCCGGCG] | 8.12 | 8.02 | 7.85 | 8.05
GATTAAGA [8-mer GATTAAGA] | 11 | 9.4 | 8.78 | 9.62
CGCCGGGA [8-mer CGCCGGGA] | 8.45 | 8 | 7.87 | 8.05
GGAGATTA [8-mer GGAGATTA] | 11.2 | 9.4 | 8.62 | 9.75
AAGATTAA [8-mer AAGATTAA] | 11 | 9.3 | 8.56 | 9.42
GCGGATTA [8-mer GCGGATTA] | 11.3 | 9.43 | 8.4 | 9.8
AGATTATA [8-mer AGATTATA] | 10.9 | 9.38 | 8.73 | 9.54
GACCGAAC [8-mer GACCGAAC] | 8.29 | 8.25 | 8.21 | 8.23
CGAGATTA [8-mer CGAGATTA] | 11 | 9.18 | 8.66 | 9.44
CGGGATTA [8-mer CGGGATTA] | 11.4 | 9.52 | 8.43 | 10.1
GAGGATCA [8-mer GAGGATCA] | 10 | 8.59 | 8.33 | 8.76
CAGATTAG [8-mer CAGATTAG] | 10.8 | 9.09 | 8.51 | 9.2
AAGGATTA [8-mer AAGGATTA] | 11.5 | 9.63 | 8.69 | 10.1
GGGACCCA [8-mer GGGACCCA] | 8.23 | 8.13 | 8.01 | 8.1
GCCGGCCA [8-mer GCCGGCCA] | 8.36 | 8.11 | 8 | 8.18
AATAATCT [8-mer AATAATCT] | 10.9 | 9.34 | 8.84 | 9.41
CACCCCGG [8-mer CACCCCGG] | 8.14 | 8.01 | 7.81 | 8.08
CAGATTAA [8-mer CAGATTAA] | 11 | 9.31 | 8.59 | 9.48
